PubChem BioAssay AID886 (National Center for Advancing Translational Sciences (NCATS), 2007)
The whole screen tested about 73,000 compounds, of which about 2,500 (3.4%) were called active. Inconclusive means that the source gave no clear call. Such entries were picked first, then a sample of the others. The call rests on the fitted dose curve; in most records, active means well fitted inhibition curve with a large enough effect; inconclusive means small, poorly fitted or top-dose-only effect; inactive means no such curve, though single readings can be large or run the other way. Where the call is inconclusive, the potency comes from a doubtful curve fit.

target: 3-hydroxyacyl-CoA dehydrogenase type-2 (Homo sapiens) (UniProt Q99714); experiment: qHTS Assay for Inhibitors of HADH2 (Hydroxyacyl-Coenzyme A Dehydrogenase, Type II); conditions: recombinant HADH2, NADH fluorescence, beta-hydroxybutyryl-CoA; activity change, negative = inhibition: at 57.1 µM (top of the series); further: nearly all actives have a fitted effect of over 60% in size
UniProt Q99714, sequence (Q99714 whole entry, looked up): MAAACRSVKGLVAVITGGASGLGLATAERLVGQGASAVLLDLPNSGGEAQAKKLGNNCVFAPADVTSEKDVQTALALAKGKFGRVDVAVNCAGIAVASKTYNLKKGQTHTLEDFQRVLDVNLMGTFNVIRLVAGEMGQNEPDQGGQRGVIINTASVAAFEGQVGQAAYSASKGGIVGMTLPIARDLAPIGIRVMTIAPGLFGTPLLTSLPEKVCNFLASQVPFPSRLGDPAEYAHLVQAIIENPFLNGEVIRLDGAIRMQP
UniProt Q99714, sequence (Q99714 whole entry, looked up): as above
Procedure, shortened: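 Read-out: 360 nm excitation, 450 nm emission, kinetic over 4 min. Conditions: His-tagged human HADH2 20 nM, pH 9.0 Tris with Tween-20, 1 mM NAD+, 90 uM beta-hydroxybutyryl-CoA.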
On the % scale 0 is the no-effect control and ±100 the full control effect; potency means the concentration at half of the fitted maximal effect; tags describe the fitted curve by direction and shape.

| SMILES | activity change, negative = inhibition | Potency |
| --- | --- | --- |
| CCc1ccc2[nH]c(=O)c(CN(CCN(CC)CC)C(=O)Nc3ccccc3OC)cc2c1 | inactive: 35% |  |
| CN(C)c1nc2ccc(OCCN3CCCCC3)cc2s1 | inactive: -5.17% |  |
| COc1ccc(CN(Cc2nc3ccccc3c(=O)[nH]2)C(=O)NC2CCCCC2)cc1 | inactive: 8.22% |  |
| CCOC(=O)c1c(-c2ccsc2)csc1N |  | active: 3.16 µM |
| Cc1ccc(-c2cccc(NC(=O)C3C(C(=O)O)[C@@H]4C=C[C@H]3C4)c2)o1 (stereo partly drawn) |  | inconclusive: 31.6 µM [inhibitor, single point] |
| c1cc(CNc2ccc3c(c2)OCO3)ccn1 |  | inconclusive: 12.6 µM [inhibitor, partial curve] |
| CCOC(=O)C1CCN(S(=O)(=O)c2cccc(-c3cn4cccnc4n3)c2)CC1 |  | active: 7.94 µM |
| Oc1ccc(Cc2nccc3cc(O)c(O)cc23)cc1O |  | active: 0.631 µM |
| CCC(C)(C(=O)NC1CCCC1)N(C(=O)c1ccccn1)c1ccccc1 (stereo not drawn) |  | inconclusive: 31.6 µM [inhibitor, single point] |
| Cc1c(C(=O)O)oc2ccc(S(=O)(=O)NCCC3=CCCCC3)cc12 |  | inconclusive: 0.0063 µM [inhibitor, full curve] |
| COc1ccc(NC(=O)CSc2nnc(-c3cccnc3)n2Cc2ccco2)c(OC)c1 | inactive: 14.8% |  |
| O=c1n(CCCN2CCN(c3cccc(Cl)c3)CC2)nc2ccccn12 |  | inconclusive: 31.6 µM [inhibitor, single point] |
| Cc1ccc(NC(=O)CSc2nnc(Cc3cccn3C)n2-c2ccc(F)cc2)c(C)c1 | inactive: -1.13% |  |
| N#Cc1nc(-c2ccc(F)cc2)oc1NCCN1CCOCC1 |  | active: 31.6 µM |
| COC(=O)C1=C(C)NC2=C(C(=O)CCC2)C1c1ccsc1 (stereo not drawn) | inactive: -27.6% |  |
| Cc1cnc(CNc2ncncc2-c2ccc(N(C)C)cc2)cn1 |  | inconclusive: 20 µM [inhibitor, single point] |
| CCCCSc1nnc([C@@H](NC(=O)OC(C)(C)C)C(C)C)o1 | inactive: 17.7% |  |
| CCC(=O)c1ccc2c(c1)N(CCCN(C)C)c1ccccc1S2 |  | inconclusive: 39.8 µM [inhibitor, single point] |
| CN(Cc1ccco1)c1ncncc1-c1ccoc1 |  | inconclusive: 7.94 µM [inhibitor, full curve] |
| Oc1cccc(-c2nc3ccccc3s2)c1 |  | active: 15.8 µM |
| Cc1cccc(CNc2ncnc3ccc(-c4ccc5c(c4)OCO5)cc23)c1 |  | inconclusive: 31.6 µM [inhibitor, single point] |
| COc1cccc(Nc2ncc3nc(-c4cccs4)c(=O)n(-c4ccccc4)c3n2)c1 | inactive: 9.38% |  |
| CCn1c(C)c(C(C)=O)c(N2CCCC2)nc1=S | inactive: -8.31% [at 11.4 µM] |  |
| COc1ccc(CNC(=O)C2CC(=O)N(c3ccc(OCC(=O)N4C(C)CCCC4C)cc3)C2)cc1 (stereo not drawn) | inactive: 4.73% |  |
| CN(C)c1ccc(-c2nn3c(C4CCCCC4)nnc3s2)cc1 |  | inconclusive: 39.8 µM [inhibitor, single point] |
| O=C(O)Cn1nc2ccccc2n1 | inactive: 8.06% |  |

| SMILES | activity change, negative = inhibition | Potency |
| --- | --- | --- |
| CC(C)=CCC/C(C)=C/CO/N=C1/C[C@@H](O)[C@@H](O)[C@@H]2[C@@H]3C(=O)N(C(C)(C)C)C(=O)[C@H]3CC[C@@H]12 | inactive: 8.24% [at 11.4 µM] |  |
| CC(/C=C/c1ccc(Cl)o1)=C\C(=O)O |  | inconclusive: 31.6 µM [inhibitor, single point] |
| C/C(N)=C(/C#N)C(=O)CSc1nnc(Nc2cccc(C)c2C)s1 |  | inconclusive: 25.1 µM [inhibitor, partial curve] |
| COCC(=O)N1CCC2(CC1)CN(C(=O)Nc1ccc(OC)cc1)C2 | inactive: 8.65% |  |
| CCc1c(C)sc(NC(=O)c2ccc(Br)o2)c1C(=O)OC |  | inconclusive: 39.8 µM [inhibitor, single point] |
| COc1cc2nc(-c3ccc(Br)o3)oc(=O)c2cc1OC | inactive: 54.3% |  |
| COC(=O)c1cccc(NC(=O)CN2CCN(Cc3ccccc3)CC2)c1 |  | inconclusive: 1.26 µM [inhibitor, full curve] |
| COc1ccc(/C=N/n2c(=O)[nH]c3c([nH]c4ccc(C)cc43)c2=O)cc1CN1CCOCC1 |  | inconclusive: 39.8 µM [inhibitor, single point] |
| CC1CCCCN1C(=O)N[C@@H](Cc1ccccc1)C(=O)O (stereo partly drawn) |  | inconclusive: 6.31 µM [inhibitor, single point] |
| Cc1cc(C(=O)Nc2sc3c(c2C#N)CCC(C)C3)cs1 (stereo not drawn) |  | inconclusive: 39.8 µM [inhibitor, single point] |
| O=C1COc2ccc(C(=O)NCc3ccc4c(c3)OCO4)cc2N1 | inactive: 6.16% |  |
| Cn1c(Cn2c(=O)sc3ccccc32)nnc1SCC(=O)NCc1ccc2c(c1)OCO2 | inactive: 0.324% |  |
| O=C(Nc1ccncc1)c1cc2ccccc2oc1=O | inactive: -0.0189% |  |
| Cc1nc(=S)n(-c2ccccc2)[nH]1 |  | inconclusive: 31.6 µM [inhibitor, single point] |
| Cc1cccn2cc(-c3ccc(S(=O)(=O)N4CCOCC4)cc3)nc12 |  | active: 31.6 µM |
| Cc1c(-c2ccc(Cl)cc2)noc1C1CCN(CCc2ccccc2)CC1 | inactive: 2.6% |  |
| CCN(CC)c1ccc(C(=S)N2CCN(c3ccccc3)CC2)cc1 |  | active: 12.6 µM |
| Oc1cc(O)c2c(c1)O[C@H](c1ccc(O)c(O)c1)[C@@H](O)[C@@H]2c1c(O)cc(O)c2c1O[C@@H](c1ccc(O)c(O)c1)[C@H](O)C2 |  | active: 1 µM |
| O=C(CSc1nc2ccccc2c(=O)n1CCCO)NCc1ccccc1 | inactive: 2.44% |  |
| O=[n+]1c2c(n([O-])c3cc(Br)ccc31)CCC2 |  | inconclusive: 25.1 µM [inhibitor, single point] |
| Cc1ccc2nc(-c3ccc(S(=O)(=O)N4CCOCC4)cc3)cn2c1 |  | inconclusive: 39.8 µM [inhibitor, single point] |
| COc1ccc2nc3c(cc2c1)c(NC(=O)C1CCCO1)nn3CC(C)C (stereo not drawn) |  | inconclusive: 39.8 µM [inhibitor, single point] |
| C=CCn1c(COc2ccccc2)nnc1SCc1ccc(C#N)cc1 | inactive: -1.54% |  |
| Cc1cc(C)n2nc(Cc3ccccc3)nc2n1 | inactive: 19.4% |  |
| COC(=O)c1ccccc1NC(=O)n1cc(C)cn1 |  | inconclusive: 31.6 µM [inhibitor, single point] |
| COCc1cc(C)nc(NC2CCCCC2)c1C#N | inactive: -193% |  |

| SMILES | activity change, negative = inhibition | Potency |
| --- | --- | --- |
| Cc1ccc(C(=O)Nc2nncs2)cc1S(=O)(=O)N1CCOCC1 |  | inconclusive: 25.1 µM [inhibitor, single point] |
| N#CCSC1=Nc2ccccc2C2=NC(CCC(=O)N3CCN(c4ccccc4)CC3)C(=O)N12 (stereo not drawn) |  | inconclusive: 31.6 µM [inhibitor, single point] |
| Cc1c(C(=O)NCc2cccnc2)sc2nc(-c3ccc(F)cc3)cn12 | inactive: -4.83% |  |
| CC(C)(C)CC(=O)Nc1nnc(-c2cccs2)s1 |  | inconclusive: 39.8 µM [inhibitor, single point] |
| O=C(Nc1sc2c(c1C(=O)NCc1cccnc1)CCCC2)c1ccco1 |  | active: 39.8 µM |
| O=C(O)CCC(=O)NC1CCCCC1NC(=O)CCC(=O)O (stereo not drawn) | inactive: 8.35% [at 11.4 µM] |  |
| COc1ccccc1CN1CCCC2(CCN(C(=O)c3cccn3C)CC2)C1 | inactive: 16.1% |  |
| CCOC(=O)c1cc2c(=O)n3cccc(C)c3nc2n(CCOC)c1=NC(=O)c1ccncc1 |  | inconclusive: 12.6 µM [inhibitor, partial curve] |
| Cc1cnc(CNc2ccnc(-c3cccc(C#N)c3)n2)cn1 | inactive: -7.35% |  |
| CC(=O)C1=C(O)C(=O)N(CCN2CCOCC2)C1c1ccccc1 (stereo not drawn) |  | inconclusive: 39.8 µM [inhibitor, single point] |
| Cc1ccc2c(c1)c1cccc3c1n2CCN3CCC(N)=O |  | inconclusive: 3.16 µM [inhibitor, full curve, poor fit] |
| Cc1onc(-c2ccccc2)c1C(=O)n1nnc2ccccc21 |  | inconclusive: 15.8 µM [inhibitor, partial curve] |
| Cc1cccc(/N=C/c2c(O)n(-c3cc(Cl)ccc3N3CCOCC3)c(=O)c3ccccc23)n1 | inactive: 55.2% |  |
| CCCC(c1nnnn1C(C)(C)CC)N(Cc1ccco1)Cc1cc2ccc(OC)cc2[nH]c1=O (stereo not drawn) |  | inconclusive: 39.8 µM [inhibitor, single point] |
| COCC(=O)Nc1nnc(-c2cccs2)s1 |  | inconclusive: 31.6 µM [inhibitor, single point] |
| CCCN(CCC)CCc1cccc2c1CC(=O)N2 | inactive: 5.38% |  |
| CC1CCN(CC[S-])CC1.O.O.[Cl][Pt] |  | inconclusive: 6.31 µM [inhibitor, single point] |
| Cc1c(C(N)=O)sc(N)c1C(=O)OC(C)C |  | inconclusive: 20 µM [inhibitor, partial curve] |
| C[C@H](O)[C@H](O)[C@@H](O)c1cnc2nc(N)[nH]c(=O)c2n1 |  | active: 25.1 µM |
| C=CCN1CC(c2nc3ccccc3n2Cc2ccccc2)CC1=O (stereo not drawn) |  | inconclusive: 2.51 µM [inhibitor, partial curve] |
| CCCCc1ccc(CC(=O)O)cc1 |  | inconclusive: 15.8 µM [inhibitor, partial curve] |
| CCOC(=O)c1oc2ccccc2c1NC(=O)c1ccccc1OC |  | active: 31.6 µM |
| CN(Cc1ccccc1)C1CC(=O)N(c2ccc(C(=O)O)cc2)C1=O (stereo not drawn) |  | inconclusive: 20 µM [inhibitor, partial curve] |
| Nn1c(SCc2nc3ccccn3c2Br)nnc1-c1cccnc1 |  | inconclusive: 0.199 µM [inhibitor, full curve, poor fit] |
| CCOC(=O)C1=C(C)NC(=O)N[C@@H]1c1coc2cc(C)cc(C)c2c1=O | inactive: 0.412% [at 11.4 µM] |  |
| O=C(Cc1c[nH]c2ccccc12)NCc1ccc2c(c1)OCO2 | inactive: -13.3% |  |
